Biological target: T1, human IL-15Rα subunit (human, UniProt Q13261 31-267)
T1 construct: whole, on cells; Other IL-15 receptor subunits may be present on the same cells; also called IL-15 receptor alpha; IL-15Rα chain
Experiment: flow cytometry on PHA-activated human PBMCs, anti-FLAG biotinylated Ab and streptavidin-RED670

T1 sequence (Q13261 31-267): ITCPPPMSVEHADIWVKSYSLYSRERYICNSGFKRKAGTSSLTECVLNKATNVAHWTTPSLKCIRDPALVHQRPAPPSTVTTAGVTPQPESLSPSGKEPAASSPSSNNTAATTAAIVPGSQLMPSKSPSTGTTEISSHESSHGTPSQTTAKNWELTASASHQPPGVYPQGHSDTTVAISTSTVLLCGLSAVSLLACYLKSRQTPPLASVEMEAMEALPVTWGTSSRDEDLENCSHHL

binding result: binds
B1: FLAG-HMK-IL-15 (Q149D; Q156D) double mutant protein (ligand, not shown: small tags and cut ends)
chain: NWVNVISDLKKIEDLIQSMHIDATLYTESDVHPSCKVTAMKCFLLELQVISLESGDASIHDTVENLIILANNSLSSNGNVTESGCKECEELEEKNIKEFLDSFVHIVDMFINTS
notes: also called FLAG-HMK-IL-15 double mutant; double mutant IL-15
